Residue numbers refer to the chain shown, from its start. The list shows a part of the results.
B1: GCAUGAA (DNA:RNA)
RNA: GGGAGACCGGAAUUCAGAUUGUCCGCAUGAAUUAAAUCCCGUCGUAGCCACCA
DNA 1: CAATCTGAATTCCGGTCTCCC
DNA 2: TGGTGGCTACGACGGGATT
B2: GCUAACA (DNA:RNA)
RNA: B1 RNA with A27U, U28A, G29A, A30C
DNA 1: CAATCTGAATTCCGGTCTCCC
DNA 2: TGGTGGCTACGACGGGATT
B3: GAACUCA (DNA:RNA)
RNA: B1 RNA with C26A, U28C, G29U, A30C
DNA 1: CAATCTGAATTCCGGTCTCCC
DNA 2: TGGTGGCTACGACGGGATT
B4: CUAGUUU (DNA:RNA)
RNA: B1 RNA with G25C, C26U, U28G, G29U, A30U, A31U
DNA 1: CAATCTGAATTCCGGTCTCCC
DNA 2: TGGTGGCTACGACGGGATT
B5: CAGUGAC (DNA:RNA)
RNA: B1 RNA with G25C, C26A, A27G, A31C
DNA 1: CAATCTGAATTCCGGTCTCCC
DNA 2: TGGTGGCTACGACGGGATT
B6: AGUGCCU (DNA:RNA)
RNA: GGGAGACCGGAAUUCAGAUUGUCCAGUGCCUUUAAAUCCCGUCGUAGCCACCA
DNA 1: CAATCTGAATTCCGGTCTCCC
DNA 2: TGGTGGCTACGACGGGATT
B7: AGUAUUA (DNA:RNA)
RNA: B6 RNA with G28A, C29U, C30U, U31A
DNA 1: CAATCTGAATTCCGGTCTCCC
DNA 2: TGGTGGCTACGACGGGATT
B8: AUAACCU (DNA:RNA)
RNA: B6 RNA with G26U, U27A, G28A
DNA 1: CAATCTGAATTCCGGTCTCCC
DNA 2: TGGTGGCTACGACGGGATT
B9: UGUAGAA (DNA:RNA)
RNA: B1 RNA with G25U, C26G, A27U, U28A
DNA 1: CAATCTGAATTCCGGTCTCCC
DNA 2: TGGTGGCTACGACGGGATT
B10: CAUACGA (DNA:RNA)
RNA: B6 RNA with A25C, G26A, G28A, C30G, U31A
DNA 1: CAATCTGAATTCCGGTCTCCC
DNA 2: TGGTGGCTACGACGGGATT
B11: AGGUAAG (DNA:RNA)
RNA: B6 RNA with U27G, G28U, C29A, C30A, U31G
DNA 1: CAATCTGAATTCCGGTCTCCC
DNA 2: TGGTGGCTACGACGGGATT
B12: GGCUCUG (DNA:RNA)
RNA: B6 RNA with A25G, U27C, G28U, C30U, U31G
DNA 1: CAATCTGAATTCCGGTCTCCC
DNA 2: TGGTGGCTACGACGGGATT
B13: UACGUGC (DNA:RNA)
RNA: B6 RNA with A25U, G26A, U27C, C29U, C30G, U31C
DNA 1: CAATCTGAATTCCGGTCTCCC
DNA 2: TGGTGGCTACGACGGGATT
B14: UUGCAGC (DNA:RNA)
RNA: GGGAGACCGGAAUUCAGAUUGUCCUUGCAGCUUAAAUCCCGUCGUAGCCACCA
DNA 1: CAATCTGAATTCCGGTCTCCC
DNA 2: TGGTGGCTACGACGGGATT
B15: AGCGACG (DNA:RNA)
RNA: B6 RNA with U27C, C29A, U31G
DNA 1: CAATCTGAATTCCGGTCTCCC
DNA 2: TGGTGGCTACGACGGGATT
B16: ACGGCAC (DNA:RNA)
RNA: B6 RNA with G26C, U27G, C30A, U31C
DNA 1: CAATCTGAATTCCGGTCTCCC
DNA 2: TGGTGGCTACGACGGGATT
B17: GAAGGUC (DNA:RNA)
RNA: B1 RNA with C26A, U28G, A30U, A31C
DNA 1: CAATCTGAATTCCGGTCTCCC
DNA 2: TGGTGGCTACGACGGGATT
B18: GUUGCGC (DNA:RNA)
RNA: B6 RNA with A25G, G26U, C30G, U31C
DNA 1: CAATCTGAATTCCGGTCTCCC
DNA 2: TGGTGGCTACGACGGGATT
B19: AACGGAA (DNA:RNA)
RNA: B1 RNA with G25A, C26A, A27C, U28G
DNA 1: CAATCTGAATTCCGGTCTCCC
DNA 2: TGGTGGCTACGACGGGATT
B20: AAUUCGU (DNA:RNA)
RNA: B6 RNA with G26A, G28U, C30G
DNA 1: CAATCTGAATTCCGGTCTCCC
DNA 2: TGGTGGCTACGACGGGATT

These binders were tested against T1, RBFOX1 RRM (Homo sapiens, UniProt Q9NWB1 109-208) (assay: EMSA; HiTS-Eq, 1 nM pool, 10 min; buffer printed only for the single-RNA assays: 10 mM Tris pH 7.5, 150 mM NaCl, 3.4 mM EDTA, 0.001% NP-40, 30 C). Settings: tags: His6 N-terminal (pET28a); label: 5' 32P.
T1 sequence: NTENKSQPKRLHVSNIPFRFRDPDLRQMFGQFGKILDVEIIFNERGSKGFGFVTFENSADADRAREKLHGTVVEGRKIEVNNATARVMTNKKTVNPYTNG
Outline: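 Purified RbFox RRM (wild type or mutant) was equilibrated for 10 min in 50 µL with 1 nM of a 5′-radiolabelled pool of RNA with 7 randomized nucleotides, its flanks annealed to DNA oligonucleotides, across increasing protein concentrations. Free RNA was separated by 8% native PAGE, excised, reverse-transcribed, PCR-barcoded and sequenced on an Illumina HiSeq 2500. Relative association constants came from read-count changes of each variant against the control reaction, normalised to the cognate motif.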
For B1, the binding signal was 0.594 KA relative to UGCAUGU. B2 was tested, and the binding signal was 0.00537 KA relative to UGCAUGU. With B3 the binding signal was 0.00414 KA relative to UGCAUGU. In the case of B4, the binding signal is reported as 0.0103 KA relative to UGCAUGU. B5 was tested, and the binding signal was 0.00375 KA relative to UGCAUGU. In the case of B6, the binding signal is reported as 0.0094 KA relative to UGCAUGU. With B7 the binding signal was 0.00298 KA relative to UGCAUGU. B8 was tested, and the binding signal was 0.00153 KA relative to UGCAUGU. B9 was tested, and the binding signal was 0.0196 KA relative to UGCAUGU. In the case of B10, the binding signal is reported as 0.0051 KA relative to UGCAUGU. For B11, the binding signal was 0.0109 KA relative to UGCAUGU. B12 was tested, and the binding signal was 0.0188 KA relative to UGCAUGU. In the case of B13, the binding signal is reported as 0.0234 KA relative to UGCAUGU. B14 was tested, and the binding signal was 0.0161 KA relative to UGCAUGU. In the case of B15, the binding signal is reported as 0.0146 KA relative to UGCAUGU. With B16 the binding signal was 0.0132 KA relative to UGCAUGU. B17 was tested, and the binding signal was 0.0116 KA relative to UGCAUGU. In the case of B18, the binding signal is reported as 0.0245 KA relative to UGCAUGU. With B19 the binding signal was 0.00432 KA relative to UGCAUGU. B20 was tested, and the binding signal was 0.0086 KA relative to UGCAUGU.
